# Among all 3,200 compounds or so, about 110 (3.4%) showed an effect of 50% or more. The list shows a part of the results.
# System: T1, V. cholerae SAD30
# T1 construct: SAD30
# Design: species or system S. aureus MSSA476 (TSB) or V. cholerae SAD30 (LB); 384-well bacterial growth screen at 25 uM, OD600 relative to DMSO control
# Details: relative growth, OD600, LB; 25 µM; inhibitor
row,SMILES,% of control remaining [%]
1,"O=C(CCl)C1CC1(Cl)Cl (stereo not shown) [10-K09, 2-chloro-1-(2,2-dichlorocyclopropyl)ethan-1-one]",101.617
2,"C=CC(=O)NC1CCc2ccccc21 (stereo not shown) [1-A14, N-(2,3-dihydro-1H-inden-1-yl)prop-2-enamide]",85.9492
3,"Cc1nn(CCC(=O)N2CCSSCC2)c(C)c1[N+](=O)[O-] [10-J05, 3-(3,5-dimethyl-4-nitro-1H-pyrazol-1-yl)-1-(1,2,5-dithiazepan-5-yl)propan-1-one]",92.1099
4,"CC(C1CC1)N(Cc1ccccc1)C(=O)CCl (stereo not shown) [5-F09, N-benzyl-2-chloro-N-(1-cyclopropylethyl)acetamide]",97.5097
5,"CC(C)C(NC(=O)CCl)c1ccc(F)c(C#N)c1 (stereo not shown) [6-I19, 2-chloro-N-[1-(3-cyano-4-fluorophenyl)-2-methylpropyl]acetamide]",94.189
6,"CC(Cl)C(=O)NCC1CN(c2nncs2)CCO1 (stereo not shown) [7-O03, 2-chloro-N-{[4-(1,3,4-thiadiazol-2-yl)morpholin-2-yl]methyl}propanamide]",90.798
7,"C=CC(=O)N(C)CC(=O)NC(C)c1ncc(C)s1 (stereo not shown) [3-I14, N-methyl-N-({[1-(5-methyl-1,3-thiazol-2-yl)ethyl]carbamoyl}methyl)prop-2-enamide]",91.3839
8,"O=C(CCl)N(Cc1cccs1)C1CCS(=O)(=O)C1 (stereo not shown) [4-L12, 2-chloro-N-(1,1-dioxo-1lambda6-thiolan-3-yl)-N-[(thiophen-2-yl)methyl]acetamide]",108.173
9,"Cc1n[nH]c(C)c1C=C(C#N)C(=O)Nc1cc(Cl)cc(Cl)c1 [8-M08, 2-cyano-N-(3,5-dichlorophenyl)-3-(3,5-dimethyl-1H-pyrazol-4-yl)prop-2-enamide]",68.3209
10,"Cc1cccc(Cc2cnc(NC(=O)C(C)Cl)s2)c1 (stereo not shown) [4-D19, 2-chloro-N-{5-[(3-methylphenyl)methyl]-1,3-thiazol-2-yl}propanamide]",82.1221
11,"N#CC(=Cc1ccc(OC(F)F)cc1)C(=O)NC1CCCCC1 [9-A04, 2-cyano-N-cyclohexyl-3-[4-(difluoromethoxy)phenyl]prop-2-enamide]",91.2984
12,"C=CC(=O)Nc1ccc(C(=O)Nc2ccc(N3CCOCC3)nc2)cc1 [1-K15, N-[6-(morpholin-4-yl)pyridin-3-yl]-4-(prop-2-enamido)benzamide]",86.5471
13,"CC(Cl)C(=O)N1Cc2ccccc2C(n2cccn2)C1 (stereo not shown) [6-F20, 2-chloro-1-[4-(1H-pyrazol-1-yl)-1,2,3,4-tetrahydroisoquinolin-2-yl]propan-1-one]",86.757
14,"CC(Cl)C(=O)Nc1cccc2ncccc12 (stereo not shown) [4-M10, 2-chloro-N-(quinolin-5-yl)propanamide]",97.4768
15,"Cc1cc(C=C(C#N)C(=O)NCc2ccccc2)c(C)n1C1CC1 [8-G14, N-benzyl-2-cyano-3-(1-cyclopropyl-2,5-dimethyl-1H-pyrrol-3-yl)prop-2-enamide]",61.3868
16,"C=CC(=O)N1CCC(C(=O)N2CCC[C@H]2c2ncn[nH]2)CC1 [2-D12, 1-{4-[(2S)-2-(1H-1,2,4-triazol-5-yl)pyrrolidine-1-carbonyl]piperidin-1-yl}prop-2-en-1-one]",91.1223
17,"N#CC(=Cc1cccc2c1OCCCO2)C(=O)NCc1ccccc1 [9-G05, N-benzyl-2-cyano-3-(3,4-dihydro-2H-1,5-benzodioxepin-6-yl)prop-2-enamide]",91.5704
18,"CC(Cl)C(=O)NCc1nc(C2CC2)n[nH]1 (stereo not shown) [7-L19, 2-chloro-N-[(3-cyclopropyl-1H-1,2,4-triazol-5-yl)methyl]propanamide]",80.3568
19,"C=CC(=O)N1CCOCC1c1ccnn1C (stereo not shown) [3-I19, 1-[3-(1-methyl-1H-pyrazol-5-yl)morpholin-4-yl]prop-2-en-1-one]",94.9127
20,"O=C(CCl)NCCOc1ccc2ccccc2c1 [6-A14, 2-chloro-N-[2-(naphthalen-2-yloxy)ethyl]acetamide]",97.9809
21,"Cc1cc(=O)[nH]c(-c2cccc(NC(=O)C(C#N)=Cc3ccco3)c2)n1 [8-B10, 2-cyano-3-(furan-2-yl)-N-[3-(4-methyl-6-oxo-1,6-dihydropyrimidin-2-yl)phenyl]prop-2-enamide]",79.4697
22,"CC(C)NC(=O)C(C#N)=Cc1ccc(C(F)(F)F)cc1 [8-L13, 2-cyano-N-(propan-2-yl)-3-[4-(trifluoromethyl)phenyl]prop-2-enamide]",68.3209

row,SMILES,% of control remaining [%]
1,"COC(=O)c1ccc2[nH]cc(C(=O)CCl)c2c1 [10-D05, methyl 3-(2-chloroacetyl)-1H-indole-5-carboxylate]",99.1233
2,"CC(C)NC(=O)C(C#N)=Cc1cccc(C(F)(F)F)c1 [9-J13, 2-cyano-N-(propan-2-yl)-3-[3-(trifluoromethyl)phenyl]prop-2-enamide]",88.7152
3,"N#CC(=Cc1ccco1)C(=O)Nc1ccc2nc(S)oc2c1 [9-E16, 2-cyano-3-(furan-2-yl)-N-(2-sulfanyl-1,3-benzoxazol-6-yl)prop-2-enamide]",84.7723
4,"C=CC(=O)NCC1OCCc2sc(F)cc21 (stereo not shown) [2-P09, N-({2-fluoro-4H,6H,7H-thieno[3,2-c]pyran-4-yl}methyl)prop-2-enamide]",100.54
5,"C=CC(=O)NC[C@@H]1C=C[C@H]2C[C@@H]1CO2 (racemic) [1-I03, rac-N-{[(1R,2S,5S)-6-oxabicyclo[3.2.1]oct-3-en-2-yl]methyl}prop-2-enamide]",99.1031
6,"CC(Cl)C(=O)N(C)Cc1nccn1Cc1ccccc1 (stereo not shown) [6-J09, N-[(1-benzyl-1H-imidazol-2-yl)methyl]-2-chloro-N-methylpropanamide]",93.1273
7,"C=CC(=O)N(CC)CC(=O)N1CCCC(N2CCCS2(=O)=O)C1 (stereo not shown) [3-I08, N-{2-[3-(1,1-dioxo-1lambda6,2-thiazolidin-2-yl)piperidin-1-yl]-2-oxoethyl}-N-ethylprop-2-enamide]",95.2656
8,"CS(=O)(=O)c1ccc(C(=O)CCl)cc1 [10-I13, 2-chloro-1-(4-methanesulfonylphenyl)ethan-1-one]",0
9,"C=CC(=O)N1CCC(C(=O)N2CCCC(O)C2)(c2ccccc2)CC1 (stereo not shown) [2-P06, 1-[4-(3-hydroxypiperidine-1-carbonyl)-4-phenylpiperidin-1-yl]prop-2-en-1-one]",94.6734
10,"Cc1cc(C=C2CCN(C(=O)C(C)Cl)CC2)no1 (stereo not shown) [6-N03, 2-chloro-1-{4-[(5-methyl-1,2-oxazol-3-yl)methylidene]piperidin-1-yl}propan-1-one]",102.531
11,"C=CC(=O)N1CCN(C(=O)c2ccco2)CC1 [1-P11, 1-[4-(furan-2-carbonyl)piperazin-1-yl]prop-2-en-1-one]",101.345
12,"Cc1ccc2sc(N(Cc3ccccc3)C(=O)CCl)nc2c1C [4-K06, N-benzyl-2-chloro-N-(4,5-dimethyl-1,3-benzothiazol-2-yl)acetamide]",100.927
13,"C=CC(=O)N1CCN(Cc2nc(C(C)C)no2)CC1 [3-G11, 1-(4-{[3-(propan-2-yl)-1,2,4-oxadiazol-5-yl]methyl}piperazin-1-yl)prop-2-en-1-one]",93.5012
14,"C=CC(=O)Nc1cc(S(=O)(=O)N(C)C)cc(C)c1C [1-K11, N-[5-(dimethylsulfamoyl)-2,3-dimethylphenyl]prop-2-enamide]",84.006
15,"N#CC(=Cc1cccc(O)c1)C(=O)NCc1ccc(Cl)cc1 [8-P14, N-[(4-chlorophenyl)methyl]-2-cyano-3-(3-hydroxyphenyl)prop-2-enamide]",72.9436
16,"CC(Cl)C(=O)Nc1sc(-c2ccccc2)cc1C(N)=O (stereo not shown) [4-H13, 2-(2-chloropropanamido)-5-phenylthiophene-3-carboxamide]",77.6364
17,"C=CC(=O)N(C)Cc1nnc(C2CC2)n1C [2-H11, N-[(5-cyclopropyl-4-methyl-4H-1,2,4-triazol-3-yl)methyl]-N-methylprop-2-enamide]",90.5047
18,"C=CCNC(=O)C(C#N)=Cc1ccc(-c2ccc(F)cc2)o1 [8-L20, 2-cyano-3-[5-(4-fluorophenyl)furan-2-yl]-N-(prop-2-en-1-yl)prop-2-enamide]",70.3603
19,"Cc1ccc(C=C(C#N)C(=O)N2CCCC2)cc1 [8-E17, 3-(4-methylphenyl)-2-(pyrrolidine-1-carbonyl)prop-2-enenitrile]",68.8647
20,"COc1ccc(N(CC(F)(F)F)C(=O)CCl)cc1 [4-C15, 2-chloro-N-(4-methoxyphenyl)-N-(2,2,2-trifluoroethyl)acetamide]",101.1
21,"C=CC(=O)N1CCC(C(=O)NC(C)c2cccc(C(F)(F)F)c2)CC1 (stereo not shown) [3-G13, 1-(prop-2-enoyl)-N-{1-[3-(trifluoromethyl)phenyl]ethyl}piperidine-4-carboxamide]",76.3867

# — article PMC11995724, “Antibiotic target discovery by integrated phenotypic and activity-based profiling of electrophilic fragments” (Cell chemical biology, 2025)
